The list shows a part of the results.
How the values were obtained:
Experiment in all cases: glycan array binding signal (z-score within array); higher = stronger binding
Conditions in all cases: glycan notation: IUPAC condensed, linker removed
Neu5Ac(a2-8)Neu5Ac = biological target: Neu5Ac(a2-8)Neu5Ac
Method in brief: (§1)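 Negative Z-scores can be read as non-binding. The Z-score is calculated within each array and then averaged across arrays of one protein sequence at different concentrations or buffers and across linkers. Arrays, 3228 in all, were curated from the Consortium for Functional Glycomics database and kept only where the protein sequence was available.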

[1] = biological target: Neu5Ac(a2-8)Neu5Ac(a2-3)Gal(b1-3)GalNAc(b1-4)[Neu5Ac(a2-3)]Gal(b1-4)Glc
Method in brief: as §1

[2] = biological target: Neu5Ac(a2-8)Neu5Ac(a2-3)Gal(b1-3)GalNAc(b1-4)[Neu5Ac(a2-8)Neu5Ac(a2-3)]Gal(b1-4)Glc
Method in brief: as §1

[3] = biological target: Neu5Ac(a2-8)Neu5Ac(a2-3)Gal(b1-4)Glc
Method in brief: as §1

[4] = biological target: Neu5Ac(a2-8)Neu5Ac(a2-3)Gal(b1-4)GlcNAc
Method in brief: as §1

[5] = biological target: Neu5Ac(a2-8)Neu5Ac(a2-3)[Gal(b1-3)GalNAc(b1-4)]Gal(b1-4)Glc
Method in brief: as §1

[6] = biological target: Neu5Ac(a2-8)Neu5Ac(a2-3)[GalNAc(b1-4)]Gal(b1-4)Glc
Method in brief: as §1

[7] = biological target: Neu5Ac(a2-8)Neu5Ac(a2-8)Neu5Ac
Method in brief: as §1

[8] = biological target: Neu5Ac(a2-8)Neu5Ac(a2-8)Neu5Ac(a2-3)Gal(b1-4)Glc
Method in brief: as §1

[9] = biological target: Neu5Ac(a2-8)Neu5Ac(a2-8)Neu5Ac(a2-3)[Gal(b1-3)GalNAc(b1-4)]Gal(b1-4)Glc
Method in brief: as §1

[10] = biological target: Neu5Ac(a2-8)Neu5Ac(a2-8)Neu5Ac(a2-3)[GalNAc(b1-4)]Gal(b1-4)Glc
Method in brief: as §1

[11] = biological target: Neu5Ac(a2-8)Neu5Ac(a2-8)Neu5Ac(a2-8)Neu5Ac(a2-3)[GalNAc(b1-4)]Gal(b1-4)Glc
Method in brief: as §1

[12] = biological target: Neu5Ac(a2-8)Neu5Gc(a2-3)Gal(b1-4)GlcNAc
Method in brief: as §1

[13] = biological target: Neu5Ac(b2-6)Gal(b1-4)GlcNAc
Method in brief: as §1

Neu5Ac(b2-6)GalNAc = biological target: Neu5Ac(b2-6)GalNAc
Method in brief: as §1

[14] = biological target: Neu5Ac9Ac(a2-3)Gal(b1-3)GlcNAc
Method in brief: as §1

[15] = biological target: Neu5Ac9Ac(a2-3)Gal(b1-4)GlcNAc
Method in brief: as §1

[16] = biological target: Neu5Ac9Ac(a2-6)Gal(b1-4)GlcNAc
Method in brief: as §1

[17] = biological target: Neu5Gc(a2-3)Gal(b1-3)GlcNAc
Method in brief: as §1

[18] = biological target: Neu5Gc(a2-3)Gal(b1-3)[Fuc(a1-4)]GlcNAc
Method in brief: as §1

Neu5Gc(a2-3)Gal(b1-4)Glc = biological target: Neu5Gc(a2-3)Gal(b1-4)Glc
Method in brief: as §1

[19] = biological target: Neu5Gc(a2-3)Gal(b1-4)GlcNAc
Method in brief: as §1

[20] = biological target: Neu5Gc(a2-3)Gal(b1-4)GlcNAc(b1-3)Gal(b1-4)GlcNAc(b1-2)Man(a1-3)[Neu5Gc(a2-3)Gal(b1-4)GlcNAc(b1-3)Gal(b1-4)GlcNAc(b1-2)Man(a1-6)]Man(b1-4)GlcNAc(b1-4)GlcNAc
Method in brief: as §1

[21] = biological target: Neu5Gc(a2-3)Gal(b1-4)[Fuc(a1-3)]GlcNAc
Method in brief: as §1

[22] = biological target: Neu5Gc(a2-6)Gal(b1-4)GlcNAc
Method in brief: as §1

Neu5Gc(a2-6)GalNAc = biological target: Neu5Gc(a2-6)GalNAc
Method in brief: as §1

[23] = biological target: Neu5Gc(a2-8)Neu5Ac(a2-3)Gal(b1-4)GlcNAc
Method in brief: as §1

[24] = biological target: Neu5Gc(a2-8)Neu5Gc(a2-3)Gal(b1-4)GlcNAc
Method in brief: as §1

[25] = biological target: Neu5Gc(a2-8)Neu5Gc(a2-3)Gal(b1-4)GlcNAc(b1-3)Gal(b1-4)GlcNAc
Method in brief: as §1

[26] = biological target: Neu5Gc(a2-8)Neu5Gc(a2-6)Gal(b1-4)GlcNAc
Method in brief: as §1

[27] = biological target: Neu5Gc(b2-6)Gal(b1-4)GlcNAc
Method in brief: as §1

B1: Pwp2 (Candida glabrata) (protein)
chain: MGSSHHHHHHSSGLVPRGSHMASKNPVELNNVCTFPNDYGRIPGFTVLVGRLGLLISASDYKELLRYPGAFLIATQDTMTTSPNFELTGFPFFTGLYGLTVFPLDLLVELRGYFVPPNSGQYTFTLSDSDDAAIIFLGNPSAFPCGDLQNWPKPSEEDITVTDHLFPSRTLYLIEGVAYPMRIAYYNGIGAGRLNAAFIDPSGTRHTNWEGYIWQYDPCSTCTYS
- glycan array binding signal (z-score) (Neu5Ac(a2-8)Neu5Ac): -0.04
- glycan array binding signal (z-score) [1]: -0.089
- glycan array binding signal (z-score) [2]: -0.378
- glycan array binding signal (z-score) [3]: -0.445
- glycan array binding signal (z-score) [4]: -1.06
- glycan array binding signal (z-score) [5]: -0.631
- glycan array binding signal (z-score) [6]: -0.052
- glycan array binding signal (z-score) [7]: -0.203
- glycan array binding signal (z-score) [8]: -0.715
- glycan array binding signal (z-score) [9]: -0.048
- glycan array binding signal (z-score) [10]: 0.537
- glycan array binding signal (z-score) [11]: 0.044
- glycan array binding signal (z-score) [12]: -0.583
- glycan array binding signal (z-score) [13]: -0.294
- glycan array binding signal (z-score) (Neu5Ac(b2-6)GalNAc): -0.425
- glycan array binding signal (z-score) [14]: 1.52
- glycan array binding signal (z-score) [15]: -0.494
- glycan array binding signal (z-score) [16]: -0.276
- glycan array binding signal (z-score) [17]: -1.55
- glycan array binding signal (z-score) [18]: -0.072
- glycan array binding signal (z-score) (Neu5Gc(a2-3)Gal(b1-4)Glc): -0.331
- glycan array binding signal (z-score) [19]: 0.982
- glycan array binding signal (z-score) [20]: 1.41
- glycan array binding signal (z-score) [21]: 0.026
- glycan array binding signal (z-score) [22]: -0.523
- glycan array binding signal (z-score) (Neu5Gc(a2-6)GalNAc): 0.773
- glycan array binding signal (z-score) [23]: -0.437
- glycan array binding signal (z-score) [24]: -0.432
- glycan array binding signal (z-score) [25]: -0.367
- glycan array binding signal (z-score) [26]: -0.447
- glycan array binding signal (z-score) [27]: 0.257

From the supplement of paper PMC8728848
